Data taken from the supplement of paper PMC8728848.
This is one part of the list.

Assays:
Experiment in all cases: glycan array binding signal (z-score within array); higher = stronger binding
Details in all cases: glycan notation: IUPAC condensed, linker removed
[1] = biological target: GlcNAc(a1-4)Gal(b1-4)GlcNAc(b1-3)Gal(b1-4)GlcNAc
In short: (§1)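 The Consortium for Functional Glycomics database supplied 3228 glycan arrays, of which those lacking an available protein sequence were dropped. The binding signal, a within-array Z-score, was averaged across arrays of the same protein sequence and across linkers. Negative scores can be read as non-binding.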

[2] = biological target: GlcNAc(a1-4)Gal(b1-4)GlcNAc(b1-3)Gal(b1-4)GlcNAc(b1-3)Gal(b1-4)GlcNAc
In short: as §1

[3] = biological target: GlcNAc(a1-4)Gal(b1-4)GlcNAc(b1-3)Gal(b1-4)[Fuc(a1-3)]GlcNAc(b1-3)Gal(b1-4)[Fuc(a1-3)]GlcNAc
In short: as §1

[4] = biological target: GlcNAc(a1-6)Gal(b1-4)GlcNAc
In short: as §1

[5] = biological target: GlcNAc(b1-2)Gal(b1-3)GalNAc
In short: as §1

[6] = biological target: GlcNAc(b1-2)Man(a1-3)[GlcNAc(b1-2)Man(a1-6)]Man(b1-4)GlcNAc(b1-4)GlcNAc
In short: as §1

[7] = biological target: GlcNAc(b1-2)Man(a1-3)[GlcNAc(b1-2)Man(a1-6)]Man(b1-4)GlcNAc(b1-4)[Fuc(a1-6)]GlcNAc
In short: as §1

[8] = biological target: GlcNAc(b1-2)Man(a1-3)[GlcNAc(b1-4)][GlcNAc(b1-2)Man(a1-6)]Man(b1-4)GlcNAc(b1-4)GlcNAc
In short: as §1

[9] = biological target: GlcNAc(b1-2)[GlcNAc(b1-4)]Man(a1-3)[GlcNAc(b1-2)Man(a1-6)]Man(b1-4)GlcNAc(b1-4)GlcNAc
In short: as §1

[10] = biological target: GlcNAc(b1-2)[GlcNAc(b1-4)]Man(a1-3)[GlcNAc(b1-4)][GlcNAc(b1-2)Man(a1-6)]Man(b1-4)GlcNAc(b1-4)GlcNAc
In short: as §1

[11] = biological target: GlcNAc(b1-2)[GlcNAc(b1-4)]Man(a1-3)[GlcNAc(b1-4)][GlcNAc(b1-2)[GlcNAc(b1-6)]Man(a1-6)]Man(b1-4)GlcNAc(b1-4)GlcNAc
In short: as §1

[12] = biological target: GlcNAc(b1-2)[GlcNAc(b1-6)]Man(a1-6)[GlcNAc(b1-2)Man(a1-3)]Man(b1-4)GlcNAc(b1-4)GlcNAc
In short: as §1

[13] = biological target: GlcNAc(b1-2)[GlcNAc(b1-6)]Man(a1-6)[GlcNAc(b1-2)Man(a1-3)][GlcNAc(b1-4)]Man(b1-4)GlcNAc(b1-4)GlcNAc
In short: as §1

GlcNAc(b1-3)Gal = biological target: GlcNAc(b1-3)Gal
In short: as §1

[14] = biological target: GlcNAc(b1-3)Gal(b1-3)GalNAc
In short: as §1

GlcNAc(b1-3)Gal(b1-4)Glc = biological target: GlcNAc(b1-3)Gal(b1-4)Glc
In short: as §1

[15] = biological target: GlcNAc(b1-3)Gal(b1-4)GlcNAc
In short: as §1

[16] = biological target: GlcNAc(b1-3)Gal(b1-4)GlcNAc(b1-3)Gal(b1-4)GlcNAc
In short: as §1

GlcNAc(b1-3)GalNAc = biological target: GlcNAc(b1-3)GalNAc
In short: as §1

GlcNAc(b1-3)Man = biological target: GlcNAc(b1-3)Man
In short: as §1

[17] = biological target: GlcNAc(b1-3)[GlcNAc(b1-4)][GlcNAc(b1-6)]GlcNAc
In short: as §1

[18] = biological target: GlcNAc(b1-3)[GlcNAc(b1-6)]Gal(b1-4)GlcNAc
In short: as §1

[19] = biological target: GlcNAc(b1-3)[GlcNAc(b1-6)]GalNAc
In short: as §1

[20] = biological target: GlcNAc(b1-4)Gal(b1-4)GlcNAc
In short: as §1

GlcNAc(b1-4)GlcNAc = biological target: GlcNAc(b1-4)GlcNAc
In short: as §1

[21] = biological target: GlcNAc(b1-4)GlcNAc(b1-4)GlcNAc
In short: as §1

[22] = biological target: GlcNAc(b1-4)GlcNAc(b1-4)GlcNAc(b1-4)GlcNAc(b1-4)GlcNAc
In short: as §1

[23] = biological target: GlcNAc(b1-4)GlcNAc(b1-4)GlcNAc(b1-4)GlcNAc(b1-4)GlcNAc(b1-4)GlcNAc
In short: as §1

[24] = biological target: GlcNAc(b1-4)[GlcNAc(b1-6)]GalNAc
In short: as §1

[25] = biological target: GlcNAc(b1-6)Gal(b1-4)GlcNAc
In short: as §1

GlcNAc(b1-6)GalNAc = biological target: GlcNAc(b1-6)GalNAc
In short: as §1

GlcNAc3Prop(b1-4)GlcNAc = biological target: GlcNAc3Prop(b1-4)GlcNAc
In short: as §1

[26] = biological target: GlcNAc6S(b1-3)Gal(b1-4)GlcNAc
In short: as §1

Kdn(a2-3)Gal(b1-3)GalNAc = biological target: Kdn(a2-3)Gal(b1-3)GalNAc
In short: as §1

Kdn(a2-3)Gal(b1-3)GlcNAc = biological target: Kdn(a2-3)Gal(b1-3)GlcNAc
In short: as §1

Kdn(a2-3)Gal(b1-4)Glc = biological target: Kdn(a2-3)Gal(b1-4)Glc
In short: as §1

Kdn(a2-3)Gal(b1-4)GlcNAc = biological target: Kdn(a2-3)Gal(b1-4)GlcNAc
In short: as §1

[27] = biological target: Kdn(a2-3)Gal(b1-4)[Fuc(a1-3)]GlcNAc
In short: as §1

Kdn(a2-6)Gal(b1-4)GlcNAc = biological target: Kdn(a2-6)Gal(b1-4)GlcNAc
In short: as §1

[28] = biological target: Man(a1-2)Man(a1-2)Man(a1-3)Man
In short: as §1

[29] = biological target: Man(a1-2)Man(a1-2)Man(a1-6)[Man(a1-3)]Man
In short: as §1

Man(a1-2)Man(a1-3)Man = biological target: Man(a1-2)Man(a1-3)Man
In short: as §1

[30] = biological target: Man(a1-2)Man(a1-3)[Man(a1-2)Man(a1-6)]Man
In short: as §1

[31] = biological target: Man(a1-2)Man(a1-3)[Man(a1-2)Man(a1-6)]Man(a1-6)[Man(a1-2)Man(a1-2)Man(a1-3)]Man
In short: as §1

[32] = biological target: Man(a1-2)Man(a1-3)[Man(a1-2)Man(a1-6)]Man(a1-6)[Man(a1-2)Man(a1-2)Man(a1-3)]Man(b1-4)GlcNAc(b1-4)GlcNAc
In short: as §1

B1: CV-2L (Chromobacterium violaceum), Q7NX84 (protein)
chain: MAQQGVFTLPARINFGVTVLVNSAATQHVEIFVDNEPRAAFSGVGTGDNNLGTKVINSGSGNVRVQITANGRQSDLVSSQLVLANKLNLAVVGSEDGTDMDYNDSIVILNWPLG
glycan array binding signal (z-score) [1]: -0.246 | glycan array binding signal (z-score) [2]: -0.347 | glycan array binding signal (z-score) [3]: -0.238 | glycan array binding signal (z-score) [4]: -0.342 | glycan array binding signal (z-score) [5]: -0.338 | glycan array binding signal (z-score) [6]: -0.345 | glycan array binding signal (z-score) [7]: -0.267 | glycan array binding signal (z-score) [8]: -0.356 | glycan array binding signal (z-score) [9]: -0.209 | glycan array binding signal (z-score) [10]: -0.341 | glycan array binding signal (z-score) [11]: -0.344 | glycan array binding signal (z-score) [12]: -0.339 | glycan array binding signal (z-score) [13]: -0.337 | glycan array binding signal (z-score) (GlcNAc(b1-3)Gal): -0.339 | glycan array binding signal (z-score) [14]: -0.337 | glycan array binding signal (z-score) (GlcNAc(b1-3)Gal(b1-4)Glc): -0.346 | glycan array binding signal (z-score) [15]: -0.334 | glycan array binding signal (z-score) [16]: -0.34 | glycan array binding signal (z-score) (GlcNAc(b1-3)GalNAc): -0.345 | glycan array binding signal (z-score) (GlcNAc(b1-3)Man): -0.343 | glycan array binding signal (z-score) [17]: -0.35 | glycan array binding signal (z-score) [18]: -0.349 | glycan array binding signal (z-score) [19]: -0.349 | glycan array binding signal (z-score) [20]: -0.339 | glycan array binding signal (z-score) (GlcNAc(b1-4)GlcNAc): -0.343 | glycan array binding signal (z-score) [21]: -0.347 | glycan array binding signal (z-score) [22]: -0.35 | glycan array binding signal (z-score) [23]: -0.336 | glycan array binding signal (z-score) [24]: -0.341 | glycan array binding signal (z-score) [25]: -0.358 | glycan array binding signal (z-score) (GlcNAc(b1-6)GalNAc): -0.343 | glycan array binding signal (z-score) (GlcNAc3Prop(b1-4)GlcNAc): -0.332 | glycan array binding signal (z-score) [26]: -0.35 | glycan array binding signal (z-score) (Kdn(a2-3)Gal(b1-3)GalNAc): -0.275 | glycan array binding signal (z-score) (Kdn(a2-3)Gal(b1-3)GlcNAc): -0.33 | glycan array binding signal (z-score) (Kdn(a2-3)Gal(b1-4)Glc): -0.336 | glycan array binding signal (z-score) (Kdn(a2-3)Gal(b1-4)GlcNAc): -0.31 | glycan array binding signal (z-score) [27]: -0.337 | glycan array binding signal (z-score) (Kdn(a2-6)Gal(b1-4)GlcNAc): -0.342 | glycan array binding signal (z-score) [28]: -0.155 | glycan array binding signal (z-score) [29]: 0.627 | glycan array binding signal (z-score) (Man(a1-2)Man(a1-3)Man): -0.177 | glycan array binding signal (z-score) [30]: -0.175 | glycan array binding signal (z-score) [31]: 0.425 | glycan array binding signal (z-score) [32]: 0.113
